# In the supplement of paper PMC8728848:
# The other results are listed elsewhere or left out.
# Legend:
# Experiment in all cases: glycan array binding signal (z-score within array); higher = stronger binding
# Details in all cases: glycan notation: IUPAC condensed, linker removed
# Gal3S6S(b1-4)GlcNAc = molecular target: Gal3S6S(b1-4)GlcNAc
# Method in brief: (§1)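 Arrays were curated from the Consortium for Functional Glycomics database, 3228 in total, and kept only where the protein sequence was available. Binding is expressed as a within-array Z-score. This score was averaged across arrays of the same protein sequence at different concentrations or buffers and across linkers, and negative values can be read as non-binding.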
# Gal3S6S(b1-4)GlcNAc6S = molecular target: Gal3S6S(b1-4)GlcNAc6S
# Method in brief: as §1
# Gal4S(b1-4)GlcNAc = molecular target: Gal4S(b1-4)GlcNAc
# Method in brief: as §1
# Gal4S6S(b1-4)GlcNAc = molecular target: Gal4S6S(b1-4)GlcNAc
# Method in brief: as §1
# Gal6P(b1-4)GlcNAc = molecular target: Gal6P(b1-4)GlcNAc
# Method in brief: as §1
# Gal6S(b1-3)GlcNAc = molecular target: Gal6S(b1-3)GlcNAc
# Method in brief: as §1
# Gal6S(b1-3)GlcNAc6S = molecular target: Gal6S(b1-3)GlcNAc6S
# Method in brief: as §1
# Gal6S(b1-4)Glc = molecular target: Gal6S(b1-4)Glc
# Method in brief: as §1
# Gal6S(b1-4)Glc6S = molecular target: Gal6S(b1-4)Glc6S
# Method in brief: as §1
# Gal6S(b1-4)GlcNAc = molecular target: Gal6S(b1-4)GlcNAc
# Method in brief: as §1
# Gal6S(b1-4)GlcNAc6S = molecular target: Gal6S(b1-4)GlcNAc6S
# Method in brief: as §1
# GalNAc(a1-3)Gal = molecular target: GalNAc(a1-3)Gal
# Method in brief: as §1
# GalNAc(a1-3)GalNAc = molecular target: GalNAc(a1-3)GalNAc
# Method in brief: as §1
# [1] = molecular target: GalNAc(a1-3)GalNAc(b1-3)Gal(a1-4)Gal(b1-4)Glc
# Method in brief: as §1
# [2] = molecular target: GalNAc(a1-3)GalNAc(b1-3)Gal(a1-4)Gal(b1-4)GlcNAc
# Method in brief: as §1
# GalNAc(b1-3)Gal = molecular target: GalNAc(b1-3)Gal
# Method in brief: as §1
# [3] = molecular target: GalNAc(b1-3)Gal(a1-4)Gal(b1-4)GlcNAc
# Method in brief: as §1
# [4] = molecular target: GalNAc(b1-3)Gal(a1-4)Gal(b1-4)GlcNAc(b1-3)Gal(b1-4)Glc
# Method in brief: as §1
# [5] = molecular target: GalNAc(b1-3)Gal(a1-6)Gal(b1-4)Glc
# Method in brief: as §1
# GalNAc(b1-3)GalNAc = molecular target: GalNAc(b1-3)GalNAc
# Method in brief: as §1
# GalNAc(b1-3)GlcNAc = molecular target: GalNAc(b1-3)GlcNAc
# Method in brief: as §1
# GalNAc(b1-4)Gal(b1-4)Glc = molecular target: GalNAc(b1-4)Gal(b1-4)Glc
# Method in brief: as §1
# GalNAc(b1-4)GlcNAc = molecular target: GalNAc(b1-4)GlcNAc
# Method in brief: as §1
# [6] = molecular target: GalNAc(b1-4)GlcNAc(b1-2)Man
# Method in brief: as §1
# [7] = molecular target: GalNAc(b1-4)GlcNAc(b1-2)Man(a1-3)[GalNAc(b1-4)GlcNAc(b1-2)Man(a1-6)]Man(b1-4)GlcNAc(b1-4)GlcNAc
# Method in brief: as §1
# [8] = molecular target: GalNAc(b1-4)GlcNAc(b1-3)GalNAc(b1-4)GlcNAc
# Method in brief: as §1
# GalNAc(b1-4)GlcNAc6S = molecular target: GalNAc(b1-4)GlcNAc6S
# Method in brief: as §1
# GalNAc(b1-6)GalNAc = molecular target: GalNAc(b1-6)GalNAc
# Method in brief: as §1
# GalNAc3S(b1-4)GlcNAc = molecular target: GalNAc3S(b1-4)GlcNAc
# Method in brief: as §1
# GalNAc3S(b1-4)GlcNAc3S = molecular target: GalNAc3S(b1-4)GlcNAc3S
# Method in brief: as §1
# [9] = molecular target: GalNAc3S(b1-4)[Fuc(a1-3)]GlcNAc
# Method in brief: as §1
# GalNAc4S6S(b1-4)GlcNAc = molecular target: GalNAc4S6S(b1-4)GlcNAc
# Method in brief: as §1
# GalNAc6S(b1-4)GlcNAc = molecular target: GalNAc6S(b1-4)GlcNAc
# Method in brief: as §1
# Glc(a1-4)Glc = molecular target: Glc(a1-4)Glc
# Method in brief: as §1
# [10] = molecular target: Glc(a1-4)Glc(a1-4)Glc(a1-4)Glc
# Method in brief: as §1
# Glc(a1-6)Glc(a1-6)Glc = molecular target: Glc(a1-6)Glc(a1-6)Glc
# Method in brief: as §1
# [11] = molecular target: Glc(a1-6)Glc(a1-6)Glc(a1-6)Glc
# Method in brief: as §1
# Glc(b1-4)Glc = molecular target: Glc(b1-4)Glc
# Method in brief: as §1
binder,measurement,setting,value
GS13686A-pdi-553-26-553 (Parabacteroides distasonis) (protein) NENPDKPTDDVNYNMNEPRLASTLRGGLIIEGNVEQRLKPLQIDFYSQMTVDGGGWGTKNYIQDDEWNNLVWEEYLKQIASINIVIRSLTEKDKDAYANTIAFARIWRVYVHTLAADKFGPMPFPAYEIVEANPPYKSLKDIYDEYFRELDAAINGFNDSAQPIFSDAGIDLIYKNDVSKWKRFANSLRLRLAVRLTEVDQEKCIAEANAAISSPAGLISDKADNAYMPPKADGSWGQDYNYTMFQITWSGPICMSKSVEKLVTNIGGVAWPQGVVNQTSGVAVSSVHPEKVDPRAPKIFQPGIENGDWKGLVYGPKAEEANTGIYQSKQCAELGFIIKDGYPYKSRPYDLFLSEEVHFLKAELYARGFIAGDAKSEYEAGVRASFATWGVTSEVDDYLTSTEKNEAGTSARYDDQQGAGNTALEKIITQKYIAGIPDLAQEGWNDKRRLNLPRLDVAVYRDQAVYNNNDKDILKSANFIKRMRYPTKESLINATEYEKGKSMLGGKGDIVSTPLWWDKNSNYCTSSK,glycan array binding signal (z-score),Gal3S6S(b1-4)GlcNAc,-0.13
same,glycan array binding signal (z-score),Gal3S6S(b1-4)GlcNAc6S,-0.19
same,glycan array binding signal (z-score),Gal4S(b1-4)GlcNAc,0.254
same,glycan array binding signal (z-score),Gal4S6S(b1-4)GlcNAc,-0.295
same,glycan array binding signal (z-score),Gal6P(b1-4)GlcNAc,-0.36
same,glycan array binding signal (z-score),Gal6S(b1-3)GlcNAc,22.6
same,glycan array binding signal (z-score),Gal6S(b1-3)GlcNAc6S,0.093
same,glycan array binding signal (z-score),Gal6S(b1-4)Glc,0.432
same,glycan array binding signal (z-score),Gal6S(b1-4)Glc6S,0.291
same,glycan array binding signal (z-score),Gal6S(b1-4)GlcNAc,0.374
same,glycan array binding signal (z-score),Gal6S(b1-4)GlcNAc6S,-0.176
same,glycan array binding signal (z-score),GalNAc(a1-3)Gal,-0.145
same,glycan array binding signal (z-score),GalNAc(a1-3)GalNAc,-0.259
same,glycan array binding signal (z-score),[1],-0.428
same,glycan array binding signal (z-score),[2],-0.263
same,glycan array binding signal (z-score),GalNAc(b1-3)Gal,-0.266
same,glycan array binding signal (z-score),[3],-0.089
same,glycan array binding signal (z-score),[4],-0.315
same,glycan array binding signal (z-score),[5],0.035
same,glycan array binding signal (z-score),GalNAc(b1-3)GalNAc,-0.33
same,glycan array binding signal (z-score),GalNAc(b1-3)GlcNAc,-0.265
same,glycan array binding signal (z-score),GalNAc(b1-4)Gal(b1-4)Glc,0.208
same,glycan array binding signal (z-score),GalNAc(b1-4)GlcNAc,-0.128
same,glycan array binding signal (z-score),[6],-0.267
same,glycan array binding signal (z-score),[7],-0.173
same,glycan array binding signal (z-score),[8],0.492
same,glycan array binding signal (z-score),GalNAc(b1-4)GlcNAc6S,0.797
same,glycan array binding signal (z-score),GalNAc(b1-6)GalNAc,-0.233
same,glycan array binding signal (z-score),GalNAc3S(b1-4)GlcNAc,-0.263
same,glycan array binding signal (z-score),GalNAc3S(b1-4)GlcNAc3S,-0.096
same,glycan array binding signal (z-score),[9],-0.332
same,glycan array binding signal (z-score),GalNAc4S6S(b1-4)GlcNAc,-0.423
same,glycan array binding signal (z-score),GalNAc6S(b1-4)GlcNAc,-0.366
same,glycan array binding signal (z-score),Glc(a1-4)Glc,-0.119
same,glycan array binding signal (z-score),[10],-0.292
same,glycan array binding signal (z-score),Glc(a1-6)Glc(a1-6)Glc,-0.242
same,glycan array binding signal (z-score),[11],-0.331
same,glycan array binding signal (z-score),Glc(b1-4)Glc,0.169
